Data reported in PubChem BioAssay AID493208 (National Center for Advancing Translational Sciences (NCATS), 2011).
About 340 (0.77%) of roughly 44,000 compounds were called active. Inconclusive results (about 5%) are left out. Calls come from the whole dose curve; as a rule, active = well fitted inhibition curve with a large enough effect; inconclusive = small, poorly fitted or top-dose-only effect; inactive = flat fitted curve, though single readings scatter. Some of the results follow.

assay: Acumen qHTS Assay for Inhibitors of the mTORC1 Signaling Pathway in MEF (Tsc2-/-, p53-/-) Cells: Sytravon; settings: phospho-rpS6 immunofluorescence/PI, 24 h; series mostly up to 38.3 µM; activity change, negative = inhibition: at the top concentration;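 note: plate controls were DMSO for no effect and rapamycin for full effect; nearly all actives have a fitted effect of over 50% in size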
Outline: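 Tsc2-/-, p53-/- MEFs (empty-vector stable line) in DMEM + 10% FBS were treated with compounds 24 h at 37 degree Celsius, fixed, and immunostained for phospho-rpS6 (Alexa-488) with propidium iodide counterstain. Laser-scanning cytometry gave % positive cells, normalized against 7.5 nM rapamycin and DMSO.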

Activity change, negative = inhibition, inactive:
CCOc1ccccc1NC(=O)CCn1nc(C)c(S(=O)(=O)N2CCCCC2)c1C 0%
COc1ccc(C2C=C(c3ccccc3)Nc3nc(NC(=O)/C=C/c4ccccc4)nn32)cc1 (stereo not given) 1.72%
CCN(CC)S(=O)(=O)c1ccc2c(c1)c(=O)c(C(=O)N1CCN(c3ccc(F)cc3)CC1)cn2C -13.8%
CCc1ccc(NC(=O)CSC2=Nc3ccccc3C3=NC(CC(=O)NCc4ccccc4)C(=O)N23)cc1 (stereo not given) 0.595%
O=C(Cn1ncc2c3ccccc3n(Cc3cccc(Cl)c3)c2c1=O)NC1CCCCCC1 -1.48%
CC(=O)N1CCc2cc(S(=O)(=O)CCC(=O)NCc3ccc(Cl)cc3)ccc21 -0.55%
COC(=O)CCN(c1ccccc1)S(=O)(=O)c1cc(-c2cc(C)no2)ccc1OC 4.81%
CCN1CCSc2ccc(C(=O)NCc3ccc(OC)cc3)cc21 1.49%
CCc1ccc(-c2nc(CS(=O)CC(=O)NCCc3ccc(Cl)cc3)c(C)o2)cc1 (stereo not given) -7.11%
O=C1CCSC2(C(=O)N(Cc3ccc(F)cc3)c3ccccc32)N1c1ccc(F)c(F)c1 (stereo not given) -25.7%
CCNC(=O)CC1C(=O)N(c2cccc(OC)c2)C(=O)N1Cc1ccc(OC)c(OC)c1 (stereo not given) -3.29%
CCOc1ccc2oc(=O)cc(CN3CCN(C(=O)c4ccc(F)cc4)CC3)c2c1 3.78%
CS(=O)(=O)N1CCC(N2CCN(Cc3ccccc3)C(=O)C2=O)CC1 8.32%
COc1cccc(NC(=O)Cn2c(=O)n(-c3ccc(C)cc3)c(=O)c3ccc(C(=O)NCc4ccco4)cc32)c1 -6.43%
Cc1c(C(=O)Nc2cccc(Cl)c2)oc2ccc(S(=O)(=O)N(C)C3CCCCC3)cc12 7.35%
CCOc1ccccc1N(CC(=O)N1CCc2ccccc2C1)S(=O)(=O)c1ccccc1 23.2%
Cc1nc2ncnn2c(C)c1CCC(=O)NCc1ccccc1Cl 2.8%
COc1cc(C)c(C)cc1S(=O)(=O)Nc1cccc(-c2ccc(N3CCOCC3)nn2)c1 -2.59%
CCc1cccc(NC(=O)C(c2ccccc2)N2Cc3ccccc3C2=O)c1 (stereo not given) 0.781%
COCCn1c(=N)c(C(=O)NC(C)c2ccccc2)cc2c(=O)n3cc(C)ccc3nc21 (stereo not given) -16.9%
COc1ccc(CCNC(=O)C(=O)NCC(c2ccco2)S(=O)(=O)c2ccc(F)cc2)cc1 (stereo not given) -15.7%
COC(=O)c1cc2oc3ccccc3c2n1Cc1nc(-c2ccccc2C)oc1C 0.177%
O=C(CSCc1cc(=O)c2cc(F)ccc2[nH]1)Nc1ccccc1Cl 3.28%
Cc1cccc(N2CCN(S(=O)(=O)c3cc(C(=O)Nc4ccccc4Cl)ccc3F)CC2)c1C 10.6%
CCc1ccccc1NC(=O)CSc1nnc2ccc3ccccc3n12 -1.02%
CCC(C)NC(=O)CCc1c(C)nc2nc(-c3cc(OC)cc(OC)c3)nn2c1C (stereo not given) 7.09%
Cc1ccc(NC(=O)[C@@H](c2ccccc2)N2Cc3ccccc3C2=O)cc1 -2.06%
COc1ccc(OC)c(CCNc2nc3ccccc3c3nc(-c4cccnc4)nn23)c1 -1.45%
Brc1ccc(-n2nc(-c3ccccc3)c3cnc4cc5c(cc4c32)OCO5)cc1 -1.73%
Cc1ccc2[nH]c(CSc3nnc(NC(=O)c4ccc(Cl)cc4)s3)cc(=O)c2c1 -10.2%
Cc1cc(S(=O)(=O)C(CNC(=O)COc2ccc(Cl)cc2)c2cccs2)ccc1F (stereo not given) 4.01%
CCCN(CCC)C(=O)c1c2c(nc3ccccc13)C(=O)N(C1CCCCC1)C2 -2.61%
Cc1ccc(CCNC(=O)C2CCN(Cc3nc(-c4ccccc4C)oc3C)CC2)cc1 3.63%
CCc1ccc(OCC2c3cc(OC)c(OC)cc3CCN2C(=O)COc2ccccc2)cc1 (stereo not given) 6.44%
CCCN(C(=O)c1coc(=O)c2ccccc12)c1ccccc1C 9.39%
Cc1ccc(N2C(=O)CSC23C(=O)N(CC(=O)Nc2ccc(C(C)C)cc2)c2ccccc23)cc1C (stereo not given) 2.99%
COc1cccc(NC(=O)C(Cc2ccccc2)NS(=O)(=O)c2ccc3c(c2)oc(=O)n3C)c1 (stereo not given) -0.831%
Cc1coc2cc3oc(=O)c(CC(=O)NCCc4ccccc4)c(C)c3cc12 5.48%
COc1ccc(-n2nc(C(=O)Nc3cccc(C)n3)c3c4ccccc4n(C)c3c2=O)cc1Cl 6.17%
CCOc1ccc(CCNC(=O)CCc2cn(Cc3ccc(F)cc3)c3ccccc23)cc1 -4.38%
O=C(Nc1cccnc1Cl)c1cc(-c2cccc(Cl)c2)on1 -8.43%
CCOc1ccc(CCNC(=O)c2cc3c(-c4ccc(OC)c(OC)c4)nn(C)c3s2)cc1OCC -5.75%
CCOc1ccc(NC(=O)Cn2cc(C(=O)c3ccco3)c3ccccc32)cc1 2.04%
CC(C)n1c(=N)c(C(=O)NCc2ccccc2)cc2c(=O)n3ccccc3nc21 -22.8%
COc1cc(NC(=O)c2cc(S(=O)(=O)N3CCc4ccccc43)cn2C)cc(OC)c1OC -4.18%
Cc1ccc(C)c(CN2C(=O)c3ccccc3S(=O)(=O)c3ccc(C(=O)N4CCCCC4)cc32)c1 -11.2%
COc1ccc(OC)c(NC(=O)c2cnn(-c3ccc(C)cc3)c2C2CCNCC2)c1 -11.4%
CCc1ccccc1N(C)C(=O)c1cc2c(=O)oc3ccccc3c2s1 2.34%
CC(=O)c1cccc(NC(=O)c2noc3c2CCCC3)c1 1.09%
CC(C)CC(=O)Nc1c(C(=O)N2CCN(c3ccccc3)CC2)oc2ccccc12 -1.09%
O=C(COc1ccccc1[N+](=O)[O-])N(Cc1ccco1)c1ccccn1 -1.61%
COc1cc2c(=O)n(CCc3ccccc3)c(=O)n(CC(=O)Nc3ccccc3)c2cc1OC 2.25%
O=C(C1CCC1)N1CCc2cc(S(=O)(=O)NCc3ccc(F)cc3)ccc21 1.24%
COc1ccc(C)cc1NC(=O)N1CCCn2nc(C)cc21 4.16%
COc1ccc(OC)c(NC(=O)/C=C/c2ccc(C)o2)c1 10.7%
CCOc1ccccc1NC(=O)Cn1c(=O)n(-c2cccc(C)c2)c(=O)c2c1c1cc(OC)ccc1n2C -8.34%
COc1ccc(C(=O)Cn2c(=O)c(-c3cc(C)ccc3NC(C)=O)nc3ccccc32)cc1 4.21%
CC(=O)c1cc2c(cc1N/C(=N/S(=O)(=O)c1ccc(Br)cc1)c1ccccc1)OCO2 -2.13%
O=C(Cn1c(=O)n(CC2CCC(C(=O)NCCc3ccccc3)CC2)c(=O)c2ccccc21)Nc1cccc(F)c1 (stereo not given) -0.761%
COc1ccc(C2C=C(c3ccccc3)Nc3nc(NS(=O)(=O)c4ccc(Cl)cc4)nn32)cc1 (stereo not given) -0.258%
